According to PubChem BioAssay AID652104 (National Center for Advancing Translational Sciences (NCATS), 2013):
The campaign covered roughly 410,000 compounds. About 7,200 (1.8%) were called active. The shares of active, inactive and inconclusive entries below differ from those in the screen. Calls follow the shape of the dose curve; as a rule, active = well fitted activation curve with a large enough effect; inconclusive = small, poorly fitted or top-dose-only effect, or another doubt; inactive = no such curve, though single readings can be large or run the other way. Potencies of inconclusive entries are left out as doubtful fits.
Potency is read from the fitted curve at half-maximal effect; tags tell the direction and shape of the fitted curve.

Assay: qHTS of TDP-43 Inhibitors; also: nearly all actives have a fitted effect of over 50% in size; as to growth rescue (activation): % of control where 0% means no effect
Details: TDP-43 expressing yeast growth rescue, BacTiter-Glo, 24 h; growth rescue (activation): at 46.1 µM (top of the series) unless noted
Outline: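 In this qHTS, compounds that restore growth of yeast expressing TDP-43 appear as activators. Cells (OD600=0.02, galactose medium, raffinose-pregrown) are incubated with compound 24 hr at 30 deg C and growth is quantified by BacTiter-Glo.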
In the case of `Cn1c(N)c(C(=O)COC(=O)C2CCC(C(C)(C)C)CC2)c(=O)n(C)c1=O` (stereo not drawn), the Potency is reported as active: 35.5 µM. For `O=C(CC(=O)c1ccccn1)c1ccccc1`, the Potency was inconclusive [activator, single point]. For `Cc1ccc(-n2cc(-c3ccccc3)c3c(N4CCCCC4)ncnc32)cc1`, the Potency was inconclusive [activator, partial curve]. For `O=C(c1ccncc1)c1ccc(NC(=O)c2cccs2)cc1`, the Potency was inconclusive [activator, partial curve]. With `C=CCOC(=O)C1=C[C@@H](c2csc3ccccc23)C[C@@H](OCc2ccc(CO)cc2)O1` the Potency was inconclusive [activator, single point]. For `O=C(/C=C/c1ccc(Cl)cc1)N(c1ccccn1)C1CCCCC1`, the Potency was inconclusive [activator, full curve]. With `O=C1CCC(=O)N1c1ccc(NCc2ccccc2Cl)c([N+](=O)[O-])c1` the Potency was active: 22.4 µM. With `O=C(NCc1ccccc1)c1cccc2c(-c3cccnc3)coc12` the Potency was inconclusive [activator, partial curve]. In the case of `COc1ccc([C@H]2CC(=O)C=C(c3cc(Cl)ccc3OC)C2)cc1`, the Potency is reported as inconclusive [activator, partial curve]. With `O=C(NCCCc1ccccc1)c1ccc(-n2cncn2)c([N+](=O)[O-])c1` the Potency was “inactive”. In the case of `CCNC(=O)/C(C#N)=C/c1c(N2CCOCC2)nc2ccccn2c1=O`, the Potency is reported as “inactive”. For `Cc1cc(C(=O)N2CCN(c3ccccc3Cl)CC2)c(C)o1`, the Potency was inconclusive [activator, single point]. For `Cc1cccc(C(=O)Nc2nnc(-c3cccnc3)o2)c1`, the Potency was inconclusive [activator, full curve, poor fit]. With `CC(OC(=O)c1ccccn1)C(=O)Nc1ccc2c(c1)OCCO2` (stereo not drawn) the Potency was “inactive”. With `O=C(O)CNC(=O)/C=C/c1ccc(Cl)cc1Cl` the Potency was “inactive”. In the case of `COc1cccc(-n2nc(-c3ccnn3-c3ccc(C)cc3)c(=O)n(C)c2=O)c1`, the Potency is reported as inconclusive [activator, partial curve]. In the case of `Cc1ccc2c(ccc[n+]2CC(=O)c2ccccc2)c1`, the Potency is reported as “inactive”. For `Cc1ccccc1NC(=S)NCc1ccc2[nH]c3c(c2c1)CCCC3`, the Potency was inconclusive [activator, partial curve, poor fit]. In the case of `CC1CCc2c(sc3nnn(Cc4ccc(F)cc4)c(=O)c23)C1` (stereo not drawn), the Potency is reported as “inactive”. For `O=C(NCc1ccccc1)c1cc(-c2cccc(Cl)c2)on1`, the Potency was “inactive”. With `Cc1ccccc1C(=O)Nc1nnc(-c2ccc(F)cc2)o1` the Potency was inconclusive [activator, single point]. In the case of `COc1cc(C(=O)NCC2CCCO2)ccc1OCc1ccccc1Cl` (stereo not drawn), the Potency is reported as inconclusive [activator, partial curve]. For `CCn1cc[n+](C)c1P(c1ccccc1)c1ccccc1`, the Potency was “inactive”. In the case of `Cc1cc(N2CCCC2)c(F)cc1/C=C\[N+](=O)[O-]`, the Potency is reported as inconclusive [activator, partial curve]. With `CCc1nc2ccc(C(=O)N3CCN(C(=O)c4ccco4)CC3)cn2c1N(C)C(=O)C1CCCCC1` the Potency was inconclusive [activator, partial curve]. With `Cc1ccccc1CSc1ccc(S(=O)(=O)N2CCCC2)cn1` the Potency was inconclusive [activator, single point]. With `Cc1cc(C(=O)CSc2ccccc2)cc(C)c1O` the growth rescue (activation) was inconclusive: 38.4% [activator]. With `O=C(N/N=C/c1ccc(Cl)cc1)Nc1ccccc1` the Potency was active: 2.82 µM. For `O=C(N/N=C/c1ccc(O)cc1)c1csc2ccccc12`, the Potency was “inactive”. With `CSc1ccc(S(=O)(=O)Nc2ccc(N3CCOCC3)c(Cl)c2)cc1` the Potency was inconclusive [activator, single point]. In the case of `C=CS(=O)(=O)c1sc(Cl)c(N2CCOCC2)c1[N+](=O)[O-]`, the growth rescue (activation) is reported as inconclusive: -91.4% [activator]. In the case of `Cc1c(Cl)cccc1NC(=O)c1ccc(-n2ccnc2)nc1`, the Potency is reported as inconclusive [activator, partial curve, poor fit]. For `Cc1nc(N)ncc1-c1ccc2c(c1)OCO2`, the Potency was inconclusive [activator, single point]. With `O=C(O)c1c(-c2ccccc2)oc2ccc(O)cc12` the Potency was inconclusive [activator, partial curve, poor fit]. For `COC(=O)c1cc(NC(=O)CCc2c(C)nc3c4c(C)cc(C)nc4nn3c2C)cc(C(=O)OC)c1`, the Potency was inconclusive [activator, full curve, poor fit]. With `O=C(NC1=NCCS1)c1ccc(-c2ccc(Cl)cc2)o1` the Potency was inconclusive [activator, single point]. For `Cc1ccc(NC(=O)C(C)c2ccc([N+](=O)[O-])cc2)cc1Cl` (stereo not drawn), the Potency was active: 11.2 µM. For `Cc1ccc(S(=O)(=O)CCC(=O)OCc2ccccc2F)cc1`, the Potency was inconclusive [activator, partial curve]. For `COc1ccccc1CCNC(=O)c1ccc2c(c1)c(C)c(C)n2C`, the Potency was inconclusive [activator, partial curve]. In the case of `CC(=O)Oc1ccc2nc(/C=C/c3ccc(C=O)cc3)oc(=O)c2c1`, the Potency is reported as “inactive”. For `CCOc1ccc(NC(=O)c2sc3nc(C)nc(N4CCOCC4)c3c2C)cc1`, the Potency was inconclusive [activator, partial curve]. For `COc1ccc2cc(C(=O)N(C)CC(=O)Nc3ccccc3Br)ccc2c1`, the Potency was inconclusive [activator, partial curve]. For `O=C(CSc1nnc(-c2cccnc2)o1)Nc1ccc(F)cc1`, the Potency was inconclusive [activator, partial curve]. In the case of `CCN(CC)S(=O)(=O)c1ccc(Cl)c(NC(=O)COC(=O)c2ccc(O)cc2)c1`, the Potency is reported as “inactive”. For `CCOC(=O)CCn1nc(-c2ccc(C)cc2)c2ccccc2c1=O`, the Potency was inconclusive [activator, full curve]. With `Cc1ccc(C)c(Cn2c(=O)n(Cc3ccccc3)c(=O)c3c(C)c(C)sc32)c1` the Potency was “inactive”. With `COc1ccccc1C(=O)OCc1ccc2sc(C)nc2c1` the Potency was inconclusive [activator, single point]. In the case of `CC1(c2nnc(Cc3ccccc3)o2)CC(c2ccc(C#N)cc2)=NO1` (stereo not drawn), the Potency is reported as inconclusive [activator, partial curve, poor fit]. For `O=C(c1ccc(Cl)c(S(=O)(=O)N2CCCCCC2)c1)N1CCCC(C(F)(F)F)C1` (stereo not drawn), the Potency was inconclusive [activator, partial curve]. For `Cc1cc(-c2ccccc2)n(-c2ccc(C(=O)N3CCN(c4ncccn4)CC3)cc2)n1`, the Potency was inconclusive [activator, single point]. For `Cc1ccc2nc(-c3ccco3)c(Cc3cccc(F)c3)n2c1`, the Potency was inconclusive [activator, single point]. For `Cc1ccnc(Sc2ncccc2[N+](=O)[O-])n1`, the Potency was “inactive”. In the case of `CC1CCC(=O)N(CCSc2ccccc2)CC1` (stereo not drawn), the Potency is reported as inconclusive [activator, partial curve]. For `NNc1nc(-c2ccccc2Cl)nc2ccccc12`, the Potency was inconclusive [activator, single point]. In the case of `CCc1ccccc1NC(=O)c1cc(S(=O)(=O)N(CC)c2ccccc2)ccc1F`, the Potency is reported as inconclusive [activator, single point]. With `CCS(=O)(=O)Nc1cccc(-c2cc(-c3ccccc3)c3cc(C)ccc3n2)c1` the Potency was inconclusive [activator, single point]. In the case of `O=C(CSc1ccc2ccccc2n1)c1ccc2c(c1)OCO2`, the Potency is reported as inconclusive [activator, partial curve]. In the case of `CCOC(=O)Nc1ccc(Oc2ccccc2)cc1`, the Potency is reported as active: 11.2 µM. With `CCCCNC(=O)C1(C)CCCCN1Cc1ccc(-c2ccccc2)cc1` (stereo not drawn) the Potency was inconclusive [activator, full curve, poor fit]. For `Cc1c(C(=O)N2CCN(c3ccccc3F)CC2)oc2c1C(=O)CC(C)(C)C2`, the Potency was inconclusive [activator, partial curve]. For `CCOC(=O)Nc1csnn1`, the Potency was “inactive”. With `O=C(CSC1=NCCS1)N1CCN(c2ccc(Cl)cc2)CC1` the Potency was inconclusive [activator, single point]. With `COc1ccc2nc3c(cc2c1)c(NC(=O)c1cccs1)nn3CC(C)C` the Potency was active: 25.1 µM. In the case of `Cc1nc(N/N=C/c2ccc(Br)cc2)cc(N2CCOCC2)n1`, the Potency is reported as inconclusive [activator, partial curve]. For `Cc1cccc(NC(=O)c2cc(S(=O)(=O)N(C)c3ccc(F)cc3)ccc2Cl)n1`, the Potency was active: 11.2 µM. For `CCC(C)(C)n1nnnc1C(c1cccnc1)N1CCC(Cc2ccccc2)CC1` (stereo not drawn), the Potency was active: 10 µM. With `Cc1cc(C)nc(SCCCNCc2ccc(Br)cc2)n1` the Potency was “inactive”. With `COCCNC(=S)NCCc1ccc(Cl)cc1Cl` the Potency was inconclusive [activator, partial curve]. For `O=C(/C=C/c1ccc(Br)cc1)c1ccc(NC(=O)c2ccco2)cc1`, the Potency was “inactive”. With `COc1cccc(CNC(=O)c2c(C)nn(-c3cccc(C)c3)c2-n2cccc2)c1` the Potency was active: 35.5 µM. In the case of `O=C(NCCCc1ccccc1)c1nn(-c2ccccc2F)nc1CO`, the Potency is reported as inconclusive [activator, partial curve]. For `COc1ccc(CNC(=O)C2Cc3c(-c4ccccc4)ccnc3O2)cc1OC` (stereo not drawn), the Potency was “inactive”. With `CC1CC(C)CN(CCCNC(=O)c2csc3c2CCCC3)C1` (stereo not drawn) the Potency was inconclusive [activator, single point].
